# This is one part of the list.
# What was measured:
# HSkMC = human skeletal muscle cells; test: cytotoxicity call (relative viability < 0.9); conditions: 10 µM
# HepG2 = test: cytotoxicity call (relative viability < 0.9); conditions: 10 µM
# S. aureus RN4220 = test: growth inhibition call (relative growth <= 0.2); conditions: 50 µM
Structure (SMILES),cytotoxicity call (HSkMC),cytotoxicity call (HepG2),growth inhibition call (S. aureus RN4220)
CCCCCCCCCCCCCCCC(=O)OC[C@H](NC(=O)C(Cl)Cl)[C@H](O)c1ccc([N+](=O)[O-])cc1,inactive,inactive,inactive
COCC#Cc1ccc2c(c1)O[C@@H](CN(C)S(=O)(=O)c1ccc(F)cc1)[C@@H](C)CN([C@H](C)CO)S2(=O)=O,inactive,inactive,inactive
CCN(CC)S(=O)(=O)c1ccc(CN2C(=O)[C@]3(CC(=O)N(CCOC)C3=O)c3cc(F)ccc32)cc1,inactive,inactive,inactive
O=C(O)/C=C/C1=C[C@@H]2[C@@H](O)[C@@H](O)[C@H]1[C@H](C(=O)O[C@@H](Cc1ccc(O)c(O)c1)C(=O)O)[C@@H]2c1ccc(O)c(O)c1,inactive,inactive,inactive
C[C@@H]1CN([C@H](C)CO)C(=O)Cc2cc(NC(=O)CCCCCC(=O)Nc3ccccc3N)ccc2O[C@@H]1CN(C)CC1CCCCC1,active,inactive,inactive
COc1ccccc1NC(=O)C[C@H]1CC[C@H]2[C@@H](COc3ccc(NS(C)(=O)=O)cc3C(=O)N2C)O1,inactive,inactive,inactive
COc1ccc(S(=O)(=O)Nc2ccccc2CN(C)C/C=C/c2ccc(Cl)cc2)cc1.O=P(=O)OO,inactive,inactive,inactive
CCCNC(=O)[C@H]1[C@H](CO)[C@H]2Cn3c(ccc(-c4ccccc4OC)c3=O)[C@H]2N1S(C)(=O)=O,inactive,inactive,inactive
C[C@@H]1CN([C@H](C)CO)C(=O)Cc2cc(NC(=O)Cn3cnnn3)ccc2O[C@@H]1CN(C)C(=O)NC1CCCCC1,inactive,inactive,inactive
CC(/C=C/C(=O)NO)=C\c1ccccc1OCc1cn(CC(=O)N2CCN(c3ccccc3)CC2)nn1,inactive,inactive,inactive
